Test results taken from a collection of fitness landscapes (doi:10.1016/j.celrep.2020.107928).
In all, about 81,000 sequences were measured (“one-hybrid fitness for binding parS DNA”: median about -0.17, highest 2% from about 0.51 on). The list shows a part of the results.

B1: Caulobacter ParB omega fusion; a variant is named by its letters at X, in order, B8GW30 (parent)
chain: MESVVVGEPGMSEGRRGLGRGLSALLGEVDAAPAQAPGEQLGGSREAPIEILQRNPDQPRRTFREEDLEDLSNSIREKGVLQPILVRPSPDTAGEYQIVAGERAWRAAQRAGLKTVPIMVRELDDLAVLEIGIIENVQRADLNVLEEALSYKVLMEKFERTQENIAQTIGKSXSHVANXMRLLXLPDEVQSYLVSGELTAXHARAIAAAADPVALAKQIIEGGLSVRETEALARKAPNLSAGKSKGGRPPRVKDTDTQALESDLSSVLGLDVSIDHRGSTGTLTITYATLEQLDDLCNRLTRGI

Variants of: B1
Test: one-hybrid fitness for binding parS DNA (scaled: cognate 1, non-cognate 0); higher = stronger binding
Conditions: with parS DNA site
In short: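 Caulobacter ParB libraries with four specificity codons randomised were screened by bacterial one-hybrid selection in the E. coli USO strain, using a HIS3 reporter whose site lies 19 bp from the promoter. Selection ran for 48 hours at 37°C on M9 lacking histidine, with 0.1 mM IPTG and 5 mM 3-AT. Plasmids were Illumina-sequenced before and after selection, three replicate libraries were pooled, and variants with under 10 reads were dropped. Fitness is the log change in each variant's read ratio to wild type, rescaled against the cognate and non-cognate sites.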

| Variant | one-hybrid fitness for binding parS DNA |
| --- | --- |
| RGRD | ≤ 0.2 |
| MDPD | ≤ 0.2 |
| HNLY | ≤ 0.2 |
| VAMA | ≤ 0.2 |
| AYNN | ≤ 0.2 |
| LEPV | ≤ 0.2 |
| MWVR | ≤ 0.2 |
| QTTE | ≤ 0.2 |
| LLVA | ≤ 0.2 |
| HSTN | ≤ 0.2 |
| RSEH | ≤ 0.2 |
| TSIC | ≤ 0.2 |
| RREV | ≤ 0.2 |
| HKIS | ≤ 0.2 |
| VAKC | ≤ 0.2 |
| GRYL | ≤ 0.2 |
| QGVT | ≤ 0.2 |
| YEAN | ≤ 0.2 |
| PCAK | ≤ 0.2 |
| SVSF | ≤ 0.2 |
| HLLL | ≤ 0.2 |
| LPLG | ≤ 0.2 |
| YDAM | ≤ 0.2 |
| SISG | ≤ 0.2 |
| AWKS | ≤ 0.2 |
| PGCA | ≤ 0.2 |

| Variant | one-hybrid fitness for binding parS DNA |
| --- | --- |
| STPI | ≤ 0.2 |
| QYSV | ≤ 0.2 |
| AASS | ≤ 0.2 |
| KLPT | ≤ 0.2 |
| WCHG | ≤ 0.2 |
| QMFV | ≤ 0.2 |
| MRPE | ≤ 0.2 |
| LAVM | ≤ 0.2 |
| IPKS | ≤ 0.2 |
| PPHM | ≤ 0.2 |
| IKSR | ≤ 0.2 |
| CRCT | ≤ 0.2 |
| KCNR | ≤ 0.2 |
| VYMR | ≤ 0.2 |
| NVHR | ≤ 0.2 |
| LMKM | ≤ 0.2 |
| PILV | ≤ 0.2 |
| NQLW | ≤ 0.2 |
| YAAE | ≤ 0.2 |
| RVVR | ≤ 0.2 |
| NTRI | ≤ 0.2 |
| HRAR | ≤ 0.2 |
| GEKG | ≤ 0.2 |
| SYDT | ≤ 0.2 |
| CKQC | ≤ 0.2 |
| GDME | ≤ 0.2 |

| Variant | one-hybrid fitness for binding parS DNA |
| --- | --- |
| QMTV | ≤ 0.2 |
| QTHY | ≤ 0.2 |
| ESYS | ≤ 0.2 |
| KAPT | ≤ 0.2 |
| PFKC | ≤ 0.2 |
| WPWT | ≤ 0.2 |
| VHPH | ≤ 0.2 |
| YPKV | ≤ 0.2 |
| FPSG | ≤ 0.2 |
| SCEN | ≤ 0.2 |
| VFQR | ≤ 0.2 |
| PSLA | ≤ 0.2 |
| AKIC | ≤ 0.2 |
| EAHS | ≤ 0.2 |
| VPNG | ≤ 0.2 |
| GDRG | ≤ 0.2 |
| MDLS | ≤ 0.2 |
| SRQM | ≤ 0.2 |
| NHDG | ≤ 0.2 |
| ADIR | ≤ 0.2 |
| NWNE | ≤ 0.2 |
| EEER | ≤ 0.2 |
| RMMR | ≤ 0.2 |
| EWAW | ≤ 0.2 |
| PLTL | ≤ 0.2 |
| SVRY | ≤ 0.2 |

| Variant | one-hybrid fitness for binding parS DNA |
| --- | --- |
| LHCR | ≤ 0.2 |
| QGWC | ≤ 0.2 |
| YPAE | ≤ 0.2 |
| ANPM | ≤ 0.2 |
| AMMG | ≤ 0.2 |
| SVQF | ≤ 0.2 |
| EVKT | ≤ 0.2 |
| CRIC | ≤ 0.2 |
| QEPN | ≤ 0.2 |
| YLYL | ≤ 0.2 |
| CHST | ≤ 0.2 |
| VTMV | ≤ 0.2 |
| PLHC | ≤ 0.2 |
| MDTE | ≤ 0.2 |
| GTGE | ≤ 0.2 |
| IWAG | ≤ 0.2 |
| WVWS | 0.289 |
| KICD | ≤ 0.2 |
| MQSC | ≤ 0.2 |
| HTRW | ≤ 0.2 |
| CDYF | ≤ 0.2 |
| VCMS | ≤ 0.2 |
| EHNG | ≤ 0.2 |
| HNTA | ≤ 0.2 |
| TMCA | ≤ 0.2 |
| AAFR | ≤ 0.2 |

| Variant | one-hybrid fitness for binding parS DNA |
| --- | --- |
| WEYS | ≤ 0.2 |
| FNYS | ≤ 0.2 |
| RAMF | 0.238 |
| WACT | ≤ 0.2 |
| GGTE | ≤ 0.2 |
| DFKE | ≤ 0.2 |
| NYLE | ≤ 0.2 |
| SPGA | ≤ 0.2 |
| NNWG | ≤ 0.2 |
| TSNA | ≤ 0.2 |
| MDSM | ≤ 0.2 |
| THFG | ≤ 0.2 |
| HAQW | ≤ 0.2 |
| AFRG | ≤ 0.2 |
| THWS | ≤ 0.2 |
| RTFV | ≤ 0.2 |
| SMQR | ≤ 0.2 |
| AKCD | ≤ 0.2 |
| FALR | ≤ 0.2 |
| SETG | ≤ 0.2 |
| MFRR | ≤ 0.2 |
| TEPH | ≤ 0.2 |
| CTVS | ≤ 0.2 |
| TWQG | ≤ 0.2 |
| NWPG | ≤ 0.2 |
| PYAK | ≤ 0.2 |

| Variant | one-hybrid fitness for binding parS DNA |
| --- | --- |
| AARP | ≤ 0.2 |
| VQPT | ≤ 0.2 |
| FICR | ≤ 0.2 |
| NDQT | ≤ 0.2 |
| AVPR | ≤ 0.2 |
| PMMT | ≤ 0.2 |
| NPGC | ≤ 0.2 |
| QFFS | ≤ 0.2 |
| DHPM | ≤ 0.2 |
| GPGG | ≤ 0.2 |
| RRQG | 0.727 |
| RAGL | ≤ 0.2 |
| KYHP | ≤ 0.2 |
| YPAG | ≤ 0.2 |
| AQEC | ≤ 0.2 |
| DVTS | ≤ 0.2 |
| WAKM | ≤ 0.2 |
| RTMA | 0.582 |
| GLEE | ≤ 0.2 |
| WRRY | ≤ 0.2 |
| PACL | ≤ 0.2 |
| GPSG | ≤ 0.2 |
| TSSS | ≤ 0.2 |
